Measured values reported in PubChem BioAssay AID1345082 (National Center for Advancing Translational Sciences (NCATS), 2018).
Screen size: about 94,000 compounds; about 4,000 (4.3%) were called active. This list was built around the results that the source calls inconclusive (neither active nor inactive); the mix of calls is not that of the screen. Calls come from the whole dose curve; as a rule, active = well fitted inhibition curve with a large enough effect; inconclusive = small, poorly fitted or top-dose-only effect; inactive = no such curve, though single readings can be large or run the other way. Where the call is inconclusive, the potency comes from a doubtful curve fit.

Assay: Cytotoxic Profiling in NIH 3T3 Cell Line of Diverse Libraries Using Quantitative High-Throughput Screening; note: nearly all actives have a fitted effect of over 55% in size
Settings: NIH 3T3 viability, CellTiter-Glo ATP luminescence, 48-72 h; series mostly up to 96.7 µM
Summary of the method: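 Viability of NIH 3T3 cells after 48 or 72 hr compound treatment at 37 °C was assessed by CellTiter-Glo, with luminescence imaged following a 10 min room-temperature step.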
Potency is the fitted concentration of half-maximal effect; tags give direction and shape of the fitted curve.

SMILES | Potency
Cc1cccc(-c2noc([C@@H]3Cc4nc[nH]c4CN3C(=O)Nc3cccc(F)c3)n2)c1 | active: 35.5 µM
COc1cccc(Nc2cc3c(cn2)CN(Cc2ccncc2)CCN3)c1 | inconclusive: 70.8 µM [inhibitor, partial curve, poor fit]
CC(C)=CCC1(CO)CCCN(Cc2cscn2)C1 (centres undefined) | inactive
Cn1cccc1CN1CCCC2(C1)C(=NC1CCCCC1)NC(=O)N2c1cccnc1 (centres undefined) | inconclusive: 50.1 µM [inhibitor, partial curve, poor fit]
COc1ccccc1Nc1ccnc(N2CCC(NC(=O)C3CC3)CC2)n1 | inactive
CCN(C(=O)CCC(=O)N1CCC(c2nc(C(=O)N3CCCC3)c(C)o2)CC1)c1ccccc1 | inconclusive: 28.2 µM [inhibitor, full curve, poor fit]
O=C(c1ccc(C(F)(F)F)cc1)N1CCC(c2nn(-c3ccc(F)cc3)c(=O)[nH]2)CC1 | inconclusive: 50.1 µM [inhibitor, partial curve, poor fit]
COc1cccc(OCC(=O)c2ccc3c(c2)N(C(C)C(=O)NCCc2ccccc2)C(=O)CO3)c1 (centres undefined) | inconclusive: 35.5 µM [inhibitor, partial curve]
CCn1ncc(CN2CC[C@@H]3C(=O)NCCCCCCN(Cc4ccncc4)[C@@H]3C2)c1C | inactive
Cc1nc(N2CCC(NC(=O)c3nn(C)c4ccccc34)CC2)cc(C(F)(F)F)n1 | inconclusive: 39.8 µM [inhibitor, partial curve, poor fit]
Cc1nc(CC2CCN(C(=O)Cn3cccc(C(F)(F)F)c3=O)CC2)no1 | inactive
Cc1noc2c(-c3cccnc3NC3CCN(C)CC3)cc(-c3ccc(Cl)cc3)nc12 | active: 22.4 µM
COc1ccc(C(=O)N2CCC3(CC2)OC(=O)N(Cc2ccc(NC(C)=O)cc2)C3(C)c2ccccc2)cn1 (centres undefined) | inconclusive: 50.1 µM [inhibitor, partial curve, poor fit]
CC(c1ccccc1)N1CCN(c2cccc(CN(C)[S+](C)(=O)[O-])c2F)CC1 (centres undefined) | inconclusive: 44.7 µM [inhibitor, partial curve, poor fit]
O=C(Cc1c[nH]c2ncc(-c3cccnc3)cc12)NCCc1ccccc1 | active: 22.4 µM
CCn1c(=O)c2c(cc(C)n2C)n(CC(=O)Nc2c(C)cccc2C)c1=O | inactive
CCCS(=O)(=O)N1CC(N(Cc2cccnc2)CC(C)C)C1 | inactive
COc1cccc(CN2C(=O)OC3(CCN(Cc4ccncc4)CC3)C2(C)c2cccnc2)c1 (centres undefined) | inconclusive: 44.7 µM [inhibitor, partial curve, poor fit]
O=C1[C@H]2CN(Cc3ccc(F)cc3)C[C@H]2C(=O)N1Cc1ccc2c(c1)OCO2 | inconclusive: 44.7 µM [inhibitor, partial curve]
COc1ccc(C(=O)N[C@@H]2CN(C(=O)Nc3cccc(C#N)c3)CCC[C@H]2O)cc1 | inconclusive: 79.4 µM [inhibitor, partial curve, poor fit]
COc1ccc(Cl)cc1-c1nc(C2CC(=O)N(C3CCCCC3)C2)no1 (centres undefined) | inconclusive: 44.7 µM [inhibitor, partial curve, poor fit]
CC1CCN(c2ccc(CNC(=O)CC3=C4CCCCC4N(C)C3=O)cc2)CC1 (centres undefined) | inconclusive: 44.7 µM [inhibitor, partial curve, poor fit]

SMILES | Potency
CCN1c2cc(C(=O)NCc3ccccc3F)ccc2C(=O)N2CCCCCC21 (centres undefined) | inconclusive: 35.5 µM [inhibitor, partial curve, poor fit]
CC1=CCN(C(=O)C2C3C(=O)N(Cc4cccnc4)C[C@@]34C=C[C@@H]2O4)CC1 (some centres undefined) | inconclusive: 89.1 µM [inhibitor, partial curve, poor fit]
CCn1ncc(N2CCC(NC(=O)c3ccc(OC)cc3C)CC2)cc1=O | inactive
O=C(NCc1cccc(F)c1)N1CCC(N2CC3CC(C2)[C@H]2CCCC(=O)N2C3)CC1 (some centres undefined) | inactive
COc1ccc(-c2cc3c(=O)n(CCNC(=O)c4ccco4)ccn3n2)cc1 | inconclusive: 39.8 µM [inhibitor, partial curve, poor fit]
COCC1CN(C(C)=O)CC12CCN(C(=O)c1cccnc1C)CC2 (centres undefined) | inactive
CN(C)Cc1cccc(-c2cc(-c3ccncc3)c3cncn3c2)c1 | inconclusive: 56.2 µM [inhibitor, partial curve, poor fit]
Cc1cc(-c2nc(-c3c(C)noc3C)cc3c2cc(C)n3CCN(C)C)ccn1 | inconclusive: 3.16 µM [inhibitor, full curve, poor fit]
O=C(C1CCCC1)N1CCCCCC1c1nnc(-c2ccccc2)o1 (centres undefined) | inactive
COc1cncc(Nc2cnc3ccc(-c4ccccc4OC)nn23)c1 | inconclusive: 44.7 µM [inhibitor, partial curve]
O=C(Cc1ccccc1Cl)N1CCC(Cc2nc(-c3ccc(F)cc3)no2)CC1 | inconclusive: 50.1 µM [inhibitor, partial curve, poor fit]
CC1(C(=O)NCCc2ccccn2)CCc2cnc(NCc3ccccc3)nc21 (centres undefined) | active: 39.8 µM
Cc1ccc(F)c(NC(=O)c2cc3c(N4CCSCC4)nc(C)cn3n2)c1 | inconclusive: 44.7 µM [inhibitor, partial curve, poor fit]
COc1ccc(-c2nc(C3CC(=O)N(c4ccc(F)c(Cl)c4)C3)no2)c(OC)c1 (centres undefined) | inconclusive: 39.8 µM [inhibitor, partial curve]
O=C(NC1CCCN(c2cc(-c3ccccc3)[nH]n2)C1)c1ccccc1Br (centres undefined) | inconclusive: 70.8 µM [inhibitor, single point]
O=C(c1ccncc1)N1CCC(Oc2ccc(-c3noc(-c4ccccc4)n3)cc2)C1 (centres undefined) | inconclusive: 44.7 µM [inhibitor, partial curve, poor fit]
Cc1noc2c(-c3ccnn3C)cc(-c3ccc(F)cc3)nc12 | inconclusive: 28.2 µM [inhibitor, full curve]
CCOC(=O)C1c2c(OC)ccc3c2C(=CC(C)(C)CO3)CN1Cc1ccc(NC(C)=O)cc1 (centres undefined) | inconclusive: 50.1 µM [inhibitor, partial curve, poor fit]
COc1ccc(C2(C(=O)N3CCN(c4ccccn4)CC3)CCOCC2)cc1 | inconclusive: 39.8 µM [inhibitor, partial curve, poor fit]
COc1ccccc1N1CCN(C(=O)C[C@@H]2C[C@@H](C(C)C)[C@H](CO)C=C2C)CC1 | active: 100 µM
CN1CC(=O)N(C2CCCC2)Cc2c(NC3CCCC3)ncnc21 | inconclusive: 89.1 µM [inhibitor, single point]
CC(=O)Nc1ccc(-c2nnc3n2CCN(C(=O)c2c(C)noc2C)C3)cc1 | inactive

SMILES | Potency
COc1cccc(-c2cccc(C(=O)N3CCN(C(=O)Nc4ccccc4)CC3)c2)c1 | inconclusive: 50.1 µM [inhibitor, partial curve, poor fit]
COc1ccccc1C1NC(=O)N(CCC(C)C)C2=C1C(=O)OC2 (centres undefined) | inactive
Cc1ccc(CN2CC[C@@H]3[C@H]2C(=O)NC[C@H](CCC(=O)Nc2ccccc2)N3C)cc1 | inconclusive: 100 µM [inhibitor, partial curve, poor fit]
Clc1ccc(C2Cn3nnc(-c4noc(C5(c6ccccc6)CC5)n4)c3CO2)cc1 (centres undefined) | inactive
O=c1ncn(Cc2ccccc2)c2ccc(-c3ccc(F)cc3)nc12 | inconclusive: 112 µM [inhibitor, partial curve, poor fit]
COc1cccc(CC(=O)Nc2ccc3c(c2)CN(CCc2ccccc2)C(=O)C(C)O3)c1 (centres undefined) | inconclusive: 28.2 µM [inhibitor, partial curve, poor fit]
CN(C)CCN1CC[C@H]2CN(S(=O)(=O)c3ccccc3)CC[C@H]2CC1=O | inconclusive: 126 µM [inhibitor, single point]
CN(C)C(=O)N1CCCC1C(=O)N1CCC(N2CCOCC2=O)CC1 (centres undefined) | inactive
COCCn1c(C)cnc1CCNS(=O)(=O)c1cccc(OC)c1 | inactive
Cc1ccc(-c2nccc3c(=O)cc(-c4cn[nH]c4)oc23)cc1 | inconclusive: 50.1 µM [inhibitor, partial curve, poor fit]
CN1CCC(O)(CCn2cnc(-c3ccccc3)c2-c2ccsc2)CC1 | inconclusive: 50.1 µM [inhibitor, partial curve, poor fit]
CN1c2cc(C(=O)Nc3ccc(OC(F)(F)F)cc3)ccc2C(=O)N2CCCCC21 (centres undefined) | inconclusive: 12.6 µM [inhibitor, partial curve, poor fit]
O=C(Cn1cccc1-c1nc(-c2ccc3c(c2)OCO3)no1)Nc1ccc(F)c(F)c1 | inactive
CNC(=O)[C@@H](Cc1ccccc1)N1CCC[C@H]1C(=O)NC1CC1 | inactive
O=C(Nc1cccnc1)c1cnc2c(c1)N(Cc1ccccc1)CCC2 | inconclusive: 39.8 µM [inhibitor, partial curve, poor fit]
COCCNC(=O)c1ccc2nnc(-c3ccccc3OC)n2c1 | inactive
Clc1ccc(-c2nnc3n2CCN(Cc2cccc4ccccc24)C3)cc1 | inactive
CSc1ccc(CNC(=O)c2cc3c(s2)CCN(C(=O)c2ccccc2)C3)cc1 | inconclusive: 20 µM [inhibitor, full curve]
C[S+](=O)([O-])N1CC2(CCN(Cc3ccc(Cl)cc3)CC2)Cc2ccccc21 | inconclusive: 50.1 µM [inhibitor, partial curve, poor fit]
CN1CCOc2c(C(=O)NCc3cnn(C)c3)cc(-c3ccc(CO)cc3)cc21 | inconclusive: 112 µM [inhibitor, partial curve, poor fit]
